Our source for the binding signal (log2 fold change) values is paper PMC5892938.

The list shows a part of the results. At the low end of the ranking, values are background and their order means little.

The target of the experiment is GST-SBP-SLBP (stem-loop binding protein) (UniProt Q14493). The experiment is described as follows: targeted RNA Bind-n-Seq.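 Note: DESeq read counts versus GST-SBP nonspecific binding control pulldown.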 The following applies: RBNS binding buffer: 25 mM Tris pH 7.5, 150 mM KCl, 3 mM MgCl2, 0.1% Tween, 0.5 mg/mL BSA, 1 mM DTT; 27 nM protein, 750 pM RNA pool; temperature not stated; high values mean tight binding.
As to “GGUCACGUCUCAAUCAACUCAAUCUCAGGAGUUUUCUCCUGUAUUUUCAACAGCUCGCAGUCAAG”, the binding signal (log2 fold change) is -0.0806.
With “GGUCACGUCUCAAUCAACUCUUUUUCAGGAGUUUUCUCCUGCUUAUUCAACAGCUCGCAGUCAAG” the figure was -0.187.
With “GGUCACGUCUCAAUCAACUCUUCCUCCAGGGAAAGCCCUGGUAUUCUCAACAGCUCGCAGUCAAG” the figure was -0.237; with “GGUCACGUCUCAAUCAACUCUUACGAGGGGGGGAAAACCCCUUUACCCUCUUCUUCAACAGCUCGCAGUCAAG”, 0.477.
With “GGUCACGUCUCAAUCAACUCUAUCUCAGGAGUUUUCUCCUGUAAUCUCAACAGCUCGCAGUCAAG” the figure was -0.0793; with “GGUCACGUCUCAAUCAACUCAUUCUCCAGGGAAAGCCCUGGUAUACUCAACAGCUCGCAGUCAAG”, 0.00425; with “GGUCACGUCUCAAUCAACUCUAUCUCCAGGGAAAGCCCUGGCAUAUUCAACAGCUCGCAGUCAAG”, -0.0756.
In the case of “GGUCACGUCUCAAUCAACUCAAUCUCAGGAGUUUUCUCCUGUAUAGUCAACAGCUCGCAGUCAAG”, the binding signal (log2 fold change) amounted to 0.0274.
Under “GGUCACGUCUCAAUCAACUCUAUCUCCAGGGAAAUCCCUGGCAAAUUCAACAGCUCGCAGUCAAG” stands 0.274.
Under “GGUCACGUCUCAAUCAACUCACAAGAGGGGGGGAAAACCCCUUUACCCUCACCGUCAACAGCUCGCAGUCAAG” stands 0.0471; under “GGUCACGUCUCAAUCAACUCCUACGAGGGGGGGAAAACCCCUUUACCCUCACAUUCAACAGCUCGCAGUCAAG”, 0.179.
On to “GGUCACGUCUCAAUCAACUCUAUUCCCAGGGAAACCCCUGGUUUUUUCAACAGCUCGCAGUCAAG”, for which the binding signal (log2 fold change) was -0.166.
Under “GGUCACGUCUCAAUCAACUCAUUCUCAGGAGUUUCCUCCUGUUAUUUCAACAGCUCGCAGUCAAG” stands -0.0361; under “GGUCACGUCUCAAUCAACUCAUUUCCAGGAGUUUUCUCCUGUUAUUUCAACAGCUCGCAGUCAAG”, -0.0387; under “GGUCACGUCUCAAUCAACUCUUCCUCAGGAGUUUUCUCCUGUAAUGUCAACAGCUCGCAGUCAAG”, 0.1.
With “GGUCACGUCUCAAUCAACUCAAUUUCAGGAGUUUGCUCCUGCUAUUUCAACAGCUCGCAGUCAAG” the figure was 0.00431; with “GGUCACGUCUCAAUCAACUCUUCUUCCAGGGAAAACCCUGGCAAUUUCAACAGCUCGCAGUCAAG”, 0.0661.
With “GGUCACGUCUCAAUCAACUCUAUUCCCAGGGAAAGCCCUGGUAAAUUCAACAGCUCGCAGUCAAG”, the binding signal (log2 fold change) was -0.044.
With “GGUCACGUCUCAAUCAACUCAAUCCCCAGGGAAACCCCUGGUAUUCUCAACAGCUCGCAGUCAAG” the figure was 0.217; with “GGUCACGUCUCAAUCAACUCUACAGAGGGGGGGAAAACCCCUUUACCCUCACUUUCAACAGCUCGCAGUCAAG”, -0.272; with “GGUCACGUCUCAAUCAACUCCCAAGAGGGGGGGAAAACCCCUUUACCCUCACUUUCAACAGCUCGCAGUCAAG”, -0.0411.
As to “GGUCACGUCUCAAUCAACUCAUAAGAGGGGGGGAAAACCCCUUUGCCCUCCAUUUCAACAGCUCGCAGUCAAG”, the binding signal (log2 fold change) was 0.125.
With “GGUCACGUCUCAAUCAACUCUUCGUCAGGAGUUUACUCCUGUUAUUUCAACAGCUCGCAGUCAAG” the figure was 0.027.
Turning to “GGUCACGUCUCAAUCAACUCAACUCCAGGAGUUUCCUCCUGCUAUUUCAACAGCUCGCAGUCAAG”, the binding signal (log2 fold change) is -0.0546.
With “GGUCACGUCUCAAUCAACUCAUCCCCCAGGGAAAUCCCUGGUUAAUUCAACAGCUCGCAGUCAAG” the figure was 0.368; with “GGUCACGUCUCAAUCAACUCAUCCUCAGGAGUUUGCUCCUGUUUUUUCAACAGCUCGCAGUCAAG”, 0.00205; with “GGUCACGUCUCAAUCAACUCUAUGGAGGGGGGGAAAACCCCUUUACCCUCAAACUCAACAGCUCGCAGUCAAG”, -0.0165.
With “GGUCACGUCUCAAUCAACUCUUUCCCAGGAGUUUACUCCUGCUUAUUCAACAGCUCGCAGUCAAG” the figure was 0.112.
On to “GGUCACGUCUCAAUCAACUCUUCGUCCAGGGAAAUCCCUGGCUAUUUCAACAGCUCGCAGUCAAG”, for which the binding signal (log2 fold change) turned out to be 0.103.
Under “GGUCACGUCUCAAUCAACUCAUUCUCAGGAGUUUACUCCUGUUUUCUCAACAGCUCGCAGUCAAG” stands 0.0629.
As for “GGUCACGUCUCAAUCAACUCCCCAGAGGGGGGGAAAACCCCUUUACCCUCGUUUUCAACAGCUCGCAGUCAAG”, the binding signal (log2 fold change) turned out to be 0.202.
With “GGUCACGUCUCAAUCAACUCAUUCUCAGGAGUUUACUCCUGCAUUCUCAACAGCUCGCAGUCAAG” the figure was 0.256.
With “GGUCACGUCUCAAUCAACUCCUUCGAGGGGGGGAAAACCCCUUUACCCUCAAUCUCAACAGCUCGCAGUCAAG” the figure was -0.103.
Under “GGUCACGUCUCAAUCAACUCUUUUCCAGGAGUUUCCUCCUGUAAUUUCAACAGCUCGCAGUCAAG” stands 0.0545; under “GGUCACGUCUCAAUCAACUCAUUCCCAGGAGUUUACUCCUGUUUACUCAACAGCUCGCAGUCAAG”, 0.0672.
Turning to “GGUCACGUCUCAAUCAACUCAAUGUCAGGAGUUUUCUCCUGUUUUCUCAACAGCUCGCAGUCAAG”, the binding signal (log2 fold change) was -0.141.
“GGUCACGUCUCAAUCAACUCCCUAGAGGGGGGGAAAACCCCUUUGCCCUCAACAUCAACAGCUCGCAGUCAAG”: the binding signal (log2 fold change) was -0.136.
With “GGUCACGUCUCAAUCAACUCAUCCCCAGGAGUUUACUCCUGCAUUCUCAACAGCUCGCAGUCAAG” the figure was 0.181; with “GGUCACGUCUCAAUCAACUCAAUUUCAGGAGUUUCCUCCUGUUAACUCAACAGCUCGCAGUCAAG”, 0.0294.
With “GGUCACGUCUCAAUCAACUCUAUCCCAGGAGUUUCCUCCUGCAAUCUCAACAGCUCGCAGUCAAG” the figure was 0.0472; with “GGUCACGUCUCAAUCAACUCGUCUUCAGGAGUUUUCUCCUGCUUUUUCAACAGCUCGCAGUCAAG”, -0.0581; with “GGUCACGUCUCAAUCAACUCUACUCCAGGAGUUUUCUCCUGUAAACUCAACAGCUCGCAGUCAAG”, 0.0336.
Regarding “GGUCACGUCUCAAUCAACUCUUUCUCCAGGGAAAUCCCUGGUUUACUCAACAGCUCGCAGUCAAG”, the binding signal (log2 fold change) was -0.0972.
With “GGUCACGUCUCAAUCAACUCUUCUUCCAGGGAAAACCCUGGUUAAUUCAACAGCUCGCAGUCAAG” the figure was -0.2; with “GGUCACGUCUCAAUCAACUCAUUUCCAGGAGUUUUCUCCUGCUAUUUCAACAGCUCGCAGUCAAG”, 0.0669; with “GGUCACGUCUCAAUCAACUCUCAAGAGGGGGGGAAAACCCCUUUGCCCUCAAAUUCAACAGCUCGCAGUCAAG”, -0.398.
Under “GGUCACGUCUCAAUCAACUCAGAAGAGGGGGGGAAAACCCCUUUGCCCUCACAAUCAACAGCUCGCAGUCAAG” stands -0.106.
